# Screen size: about 43,000 compounds; about 200 (0.47%) were called active. Not shown: some 12% with an inconclusive outcome. The call rests on the fitted dose curve; in most records, active means well fitted cell-killing curve with a large enough effect; inconclusive means small, poorly fitted or top-dose-only effect, or effect the other way; inactive means flat fitted curve, though single readings scatter. This is one part of the list.
# Experiment: Cell viability qHTS assay in S16 Pmp22-F2sN cells; further: nearly all actives have a fitted effect of over 65% in size
# Details: S16 Pmp22-F2sN Schwann cells (luciferase reporters placed in the Pmp22 gene) viability, CellTiter-Glo, 24 h; series mostly up to 57.5 µM; activity change, negative = cytotoxicity: at the top concentration
# Excerpt: Assay Provider: Jim Inglese Ph.D. National Center for Advancing Translational Science, National Institutes of Health, Rockville, MD CMT is a heterogeneous group of neurological disorders that affect approximately 1 in 2,500 people. In particular, the most common form of CMT, CMT1A is genetically linked to the duplication of the PMP22 gene which leads to Schwann cell overexpression, thus manifesting itself as a typical case of dose-sensitive diseases. To identify small molecule compounds that can mediate the expression of PMP22 we developed a phenotypic assay screening strategy by utilizing genome editing techniques to construct Schwann cell lines containing novel reporter technology to monitor the transcriptional or translational regulation of PMP22. For high sensitivity we use a bioluminescent reporter system embedded in the 3' UTR of the PMP22 gene (S16(c9) Pmp22-F2sN) to identify compounds that inhibit gene expression. […] We can further discriminate the effect of all transcriptionally active molecules on PMP22 translation or stability with an assay that incorporates a short NLuc peptide (HiBiT) at the C-terminus of expressed PMP22 (S16(f8) PMP22-HiBiT) allowing alpha complementation and luminescence detection of membrane-associated PMP22 protein. These assays were screened against the NCATS Sytravon Library Collection. Miniaturization of these assays to 1536-well plate format for quantitative high throughput screening (qHTS) yielded rich data sets immediately from the qHTS assay (S16(c9) Pmp22-F2sN), when compared with data from a cell viability assay (Cell TiterGlo) to identify compounds that decreased the output signals through cellular toxicity to streamline the selection process of actives for subsequent characterization using the HiBiT assay (S16(f8) PMP22-HiBiT).
# Cell viability assay in S16 Pmp22-F2sN cells PROTOCOL TABLE (format as described by Inglese J, Shamu CE and Guy RK. 2007) SEQUENCE No. (e.g., 1, 2, 3, etc.); […] (e.g., Cells, Incubation, Reagent, etc.); VALUE and DESCRIPTION. 1. Cells. Add 500-1,000 cells in 4 uL in growth media (DMEM High Glucose, No Phenol Red media + 10% heat-inactivated FBS + 1% Pen/Strep supplemented media) per well into Greiner 1536-well white/solid bottom high base, TC-treated plates. 2. Compounds. Library compounds and controls added at 23nL per well, transferred by Pin Tool. 3. Incubation. Incubate plates at 37C, 5% CO2, 95% RH for 24 h. 4. Reagent. Add 3uL CellTiter-Glo per well of Greiner 1536-well plates. 5. Incubation. Incubate plates at room temperature for 15 min., protect from light. 6. Detector. FLuc luminescence measured using CCD-based camera (Viewlux). NOTES (numbers refer to Sequence numbers above; values are from representative experiments) 6. Luminescence Read: Clear filter; Exposure = 1 sec, Gain = High, Speed = Slow, Binning = 2X REFERENCES: 1. Inglese J, Shamu CE and Guy RK, Reporting data from high throughput screening of small molecule libraries, Nature Chemical Biology, 2007, 3(8): 438-441. doi.org/10.1038/nchembio0807-438 2. Yasgar A, Shinn P, Jadhav A, Auld DS, Michael S, Zheng W, Austin CP, Inglese J and Simeonov A, Compound Management for Quantitative High-Throughput Screening. J. Assoc. Lab. Auto., 2008, 13: 79-89. doi: 10.1016/j.jala.2007.12.004
# On the % scale 0 is the no-effect control and ±100 the full control effect.
row,SMILES,"activity change, negative = cytotoxicity"
1,COc1ccc(-n2nc(C(=O)NCc3ccc(F)cc3)c3c4ccccc4n(C)c3c2=O)cc1,inactive: 3.7%
2,CCN(CC)C(=O)c1sc2c(c1C)c(=O)n(CCc1ccccc1)c(=O)n2Cc1cccc(Cl)c1,inactive: -16.9%
3,COc1ccccc1CNc1ccc(-c2nc(-c3cccc(C)c3)no2)cc1[N+](=O)[O-],inactive: -14.4%
4,CC(C)CCNC(=O)c1cc(Sc2ccc(F)cc2F)nc2ccccc12,inactive: -9.04%
5,COc1ccc(N2C(=O)CS(=O)(=O)C23C(=O)N(Cc2c(F)cccc2Cl)c2ccccc23)cc1 (stereo not drawn),inactive: 0.219%
6,COc1ccc(NC(=O)CN(C)S(=O)(=O)c2ccc3nc(C)sc3c2)cc1,inactive: 1.38%
7,CCOC(=O)C1=C(C(F)(F)F)Nc2ncnn2C1c1cccc(OC)c1OC (stereo not drawn),inactive: 7.21%
8,CCOC(=O)c1cnc2c(C)cc(C)cc2c1Nc1ccc(OCc2ccccc2)cc1,inactive: -11.7%
9,COc1ccc(NC(=O)C2=C(C)Nc3ncnn3C2c2ccccn2)cc1 (stereo not drawn),inactive: 1.58%
10,CNS(=O)(=O)c1cn(CC(=O)N2CCN(c3cccc(Cl)c3)CC2)cc1S(=O)(=O)NC,inactive: -5.16%
11,CC(C)Oc1ccc(CNC(=O)c2ccccc2NC(=O)c2nsc3ccccc23)cc1,inactive: 0.24%
12,O=S(=O)(NCCc1nnc2ccc(SCc3c(F)cccc3Cl)nn12)c1ccccc1,inactive: -29.6%
13,COC(=O)c1ccc(CN(Cc2ccc(OC)c(OC)c2)S(=O)(=O)c2cc(C(=O)Nc3cccc(C)c3)ccc2F)cc1,inactive: 5.07%
14,Cc1oc(-c2ccccc2F)nc1CSCC(=O)NCCc1ccccc1,inactive: -17.4%
15,CCC(Oc1ccccc1)C(=O)Nc1ccc(OCc2cc(=O)n3ccc(C)cc3n2)cc1 (stereo not drawn),inactive: -1.79%
16,O=C(CCCCn1c(=O)c2ccccc2n(Cc2ccccc2F)c1=O)NCc1ccccc1Cl,inactive: -17.6%
17,CCN(CC)C(=O)C1=CC(c2ccc3c(c2)OCO3)=NS(=O)(=O)N1C,inactive: 1.89%
18,Cc1ccc(NC(=O)CSc2nc3ccc(NC(=O)CCc4ccccc4)cc3s2)c(C)c1,inactive: 1.3%
19,CCc1ccccc1NC(=O)CN1C(=O)COc2ccc(S(=O)(=O)N3CCCCCC3)cc21,inactive: 4.71%
20,CCN(CC)S(=O)(=O)c1ccc2c(c1)N(CC(=O)NCC(C)c1ccccc1)C(=O)CO2 (stereo not drawn),inactive: -0.738%
21,COc1ccccc1CNC(=O)c1ccc2c(c1)N(Cc1ccc(C)cc1)CCS2,inactive: -3.45%
22,CCn1cc(C(=O)N2CCN(c3ccccc3OC)CC2)c(=O)c2cc(S(=O)(=O)N3CCC(C)CC3)ccc21,inactive: -4.29%
23,Cc1ccc(-n2ncc3c(N4CCCCCC4)ncnc32)cc1C,inactive: 18.5%
24,CN(C)c1ccc(CNC(=O)c2cccn2-c2nnc(N3CCCCC3)s2)cc1,inactive: -21.7%

row,SMILES,"activity change, negative = cytotoxicity"
1,CCOC(=O)c1cnc2nc(NCc3ccc(OCC)cc3)[nH]n2c1=O,inactive: -6.88%
2,Cc1ccc(C)c(NC(=O)CSc2nc(-c3ccccc3Cl)nc3c2Cc2c(CO)cnc(C)c2O3)c1,inactive: -1.06%
3,CCCCOc1ccc(C(=O)NCCc2csc(-c3ccc(OC)cc3)n2)cc1,inactive: -12.9%
4,CCN(Cc1ccccc1)S(=O)(=O)c1ccc2[nH]c3c(c2c1)CCCCC3,inactive: -1.12%
5,CN(Cc1ccccc1)c1ccc(-c2nc(-c3cccnc3)no2)cc1[N+](=O)[O-],inactive: 11.8%
6,CCOC(=O)c1cccc(NC(=O)c2nn(-c3ccc(OC)cc3)c(=O)c3c2c2ccccc2n3C)c1,inactive: 6.66%
7,Cc1cc(-c2nc3ncccc3o2)ccc1NC(=O)COc1cc(C)c(Cl)c(C)c1,inactive: 1.89%
8,O=C(NCc1ccc(F)cc1)C(=O)NCC(c1cccs1)S(=O)(=O)c1cccs1 (stereo not drawn),inactive: 5.98%
9,CCc1ccc(OCC(=O)Nc2ccc(Cl)c(-c3nc4ncccc4o3)c2)cc1,inactive: -1.22%
10,O=C(COc1ccccc1)Nc1c(Cl)ccc2nsnc12,inactive: 16.9%
11,Cc1ccc(NS(=O)(=O)c2ccc3[nH]c4c(c3c2)CCCCC4)cc1,inactive: -21.6%
12,COc1ccc(S(=O)(=O)c2cn(C)c3cc(N4CCOCC4)c(F)cc3c2=O)cc1,inactive: -0.532%
13,Cc1ccc(OCc2cc(=O)n3cc(C)sc3n2)c(C)c1,inactive: 6.28%
14,CC(C)(C)NC(=O)CCSc1nc(-c2ccc3c(c2)OCO3)cc(C(F)(F)F)n1,inactive: -24.7%
15,CCN1CCN(C(=O)c2c(C)nn(-c3ccc(F)cc3)c2-n2cccc2)CC1,inactive: -3.59%
16,Cc1cccc(-n2c(-c3ccco3)nc3c(cnn3-c3ccc(F)cc3)c2=O)c1,inactive: 3.59%
17,Cc1ccc(-n2cnc3cc(C(=O)NC4CCCCCC4)ccc32)cc1Cl,inactive: 0.0717%
18,COc1ccc(NC(=O)C2CCN(S(=O)(=O)c3c(C)noc3/C=C/c3ccc(C)cc3)CC2)cc1Cl,inactive: 5.83%
19,Cc1c(CNCCCc2ccccc2)c(C(=O)O)c(C)n1Cc1cccc(Cl)c1,inactive: 17.4%
20,COc1ccc(-c2nn(C)c3sc(C(=O)N4CCN(c5cccc(Cl)c5)CC4)cc23)cc1OC,inactive: 3.87%
21,CCOc1ccc2nc(N3CCCC(C(=O)NCc4ccc(C)cc4)C3)sc2c1 (stereo not drawn),inactive: -4.24%
22,CC(C)NC(=O)C1CCN(C(=O)N2CC(C)Oc3ccccc32)CC1 (stereo not drawn),inactive: 9.32%
23,COc1ccccc1NC(=O)Cn1c(=O)n(Cc2nc(-c3ccccc3)no2)c(=O)c2ccccc21,inactive: 2.83%
24,Cc1ccc(C)c(NC(=O)Nc2csc3c2CCCC3)c1,inactive: -0.531%
